In the supplement of paper PMC4967469:
A lower IC50 marks a more sensitive line; where the fit passes the top or lowest dose, that dose stands as a limit. The AUC spans the tested range (256-fold, ending at the top dose) of the same fit; values near 1 show little effect. Drugs with an entry number were screened twice under separate entries, and the two screens often disagree.

Compound: CS(=O)(=O)N1CCN(Cc2cc3nc(-c4cccc5[nH]ncc45)nc(N4CCOCC4)c3s2)CC1 [GDC0941]
Test: Viability of human cancer cell lines after 72 h of drug (GDSC screen)
Conditions: screen: GDSC drug entry 1058
Protocol: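 Human cancer cell lines in 384-well plates, medium with 10% serum, drug for 72 h over a 256-fold dose range (nine 2-fold or five 4-fold steps up to the top dose). Adherent lines were fixed and stained with the nucleic acid dye Syto60, suspension lines read with resazurin; signal relative to control wells, capped at 0 and 100%. One two-parameter sigmoid per drug and line, fitted in a mixed model over all curves with the slope shared within a line.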

Compared with “PCI-6A (head and neck, adherent, top dose 4 µM)”, “PCI-15A (head and neck, adherent, top dose 4 µM)” is higher in AUC: 0.648 for the first, 0.986 for the second.

First: PCI-30 (head and neck, adherent, top dose 4 µM)
Second: PE/CA-PJ15 (head and neck, adherent, top dose 4 µM)
The AUC of the first is lower: 0.802 for the first, 0.893 for the second.

First: PEO1 (ovary, adherent, top dose 4 µM)
Second: PF-382 (T-cell lymphoblastic leukaemia, suspension, top dose 4 µM)
The AUC of the first is higher: 0.887 for the first, 0.813 for the second.

First: PFSK-1 (medulloblastoma, adherent, top dose 4 µM)
Second: PL4 (pancreas, adherent, top dose 4 µM)
The AUC of the first is lower: 0.721 for the first, 0.876 for the second.

Compared with “PSN1 (pancreas, adherent, top dose 4 µM)”, “PWR-1E (prostate, adherent, top dose 4 µM)” is lower in AUC: 0.893 for the first, 0.821 for the second.

First: QGP-1 (pancreas, adherent, top dose 4 µM)
Second: QIMR-WIL (acute myeloid leukaemia, suspension, top dose 4 µM)
The AUC of the first is higher: 0.947 for the first, 0.907 for the second.

Going from “RC-K8 (B-cell lymphoma, suspension, top dose 4 µM)” to “RCC10RGB (kidney, adherent, top dose 4 µM)”, the AUC falls from 0.993 to 0.822.

First: RCC-AB (kidney, adherent, top dose 4 µM)
Second: RCC-ER (kidney, adherent, top dose 4 µM)
The AUC of the first is lower: 0.75 for the first, 0.751 for the second.

Compared with “RCC-FG2 (kidney, adherent, top dose 4 µM)”, “RCC-JF (kidney, adherent, top dose 4 µM)” is lower in AUC: 0.709 for the first, 0.557 for the second.

Going from “RCC-JW (kidney, adherent, top dose 4 µM)” to “RCC-MF (kidney, adherent, top dose 4 µM)”, the AUC rises from 0.652 to 0.698.

First: RCH-ACV (B-cell leukaemia, suspension, top dose 4 µM)
Second: RCM-1 (large intestine, adherent, top dose 4 µM)
The AUC of the first is lower: 0.238 for the first, 0.856 for the second.

First: REH (B-cell leukaemia, suspension, top dose 4 µM)
Second: RERF-LC-KJ (lung adenocarcinoma, adherent, top dose 4 µM)
The AUC of the first is lower: 0.502 for the first, 0.811 for the second.

Compared with “RERF-LC-MS (lung adenocarcinoma, adherent, top dose 4 µM)”, “RERF-LC-Sq1 (lung squamous cell carcinoma, adherent, top dose 4 µM)” is lower in AUC: 0.854 for the first, 0.693 for the second.

Compared with “RF-48 (stomach, adherent, top dose 4 µM)”, “RH-1 (rhabdomyosarcoma, adherent, top dose 4 µM)” is higher in AUC: 0.812 for the first, 0.968 for the second.

Compared with “RH-18 (rhabdomyosarcoma, adherent, top dose 4 µM)”, RKN (ovary, adherent, top dose 4 µM) is lower in AUC: 0.864 for the first, 0.7 for the second.

Compared with “RL (B-cell lymphoma, suspension, top dose 4 µM)”, “RO82-W-1 (thyroid, adherent, top dose 4 µM)” is lower in AUC: 0.961 for the first, 0.803 for the second.

Going from “ROS-50 (B-cell leukaemia, suspension, top dose 4 µM)” to “RPMI-2650 (head and neck, adherent, top dose 4 µM)”, the AUC falls from 0.976 to 0.817.

First: RPMI-6666 (Hodgkin lymphoma, suspension, top dose 4 µM)
Second: RPMI-7951 (melanoma, adherent, top dose 4 µM)
The AUC of the first is lower: 0.686 for the first, 0.8 for the second.

Going from “RPMI-8402 (T-cell lymphoblastic leukaemia, suspension, top dose 4 µM)” to “RPMI-8866 (chronic myeloid leukaemia, suspension, top dose 4 µM)”, the AUC falls from 0.571 to 0.444.

First: RS4-11 (leukaemia, suspension, top dose 4 µM)
Second: RT4 (bladder, adherent, top dose 4 µM)
The AUC of the first is lower: 0.36 for the first, 0.987 for the second.

For “RVH-421 (melanoma, adherent, top dose 4 µM)”, the AUC was 0.9.

First: PCI-6A (head and neck, adherent, top dose 4 µM)
Second: PCI-15A (head and neck, adherent, top dose 4 µM)
The IC50 of the first is lower: 0.637 µM for the first, greater than 4 µM for the second.

Compared with “PCI-30 (head and neck, adherent, top dose 4 µM)”, “PE/CA-PJ15 (head and neck, adherent, top dose 4 µM)” is higher in IC50: 2.52 µM for the first, greater than 4 µM for the second.

Going from PEO1 (ovary, adherent, top dose 4 µM) to “PF-382 (T-cell lymphoblastic leukaemia, suspension, top dose 4 µM)”, the IC50 falls from greater than 4 µM to 1.83 µM.

Compared with “PFSK-1 (medulloblastoma, adherent, top dose 4 µM)”, PL4 (pancreas, adherent, top dose 4 µM) is higher in IC50: 1.11 µM for the first, greater than 4 µM for the second.

“PSN1 (pancreas, adherent, top dose 4 µM)” and “PWR-1E (prostate, adherent, top dose 4 µM)” are within 1.5-fold of each other in IC50: 3.44 µM for the first, 2.3 µM for the second.

“QGP-1 (pancreas, adherent, top dose 4 µM)” and “QIMR-WIL (acute myeloid leukaemia, suspension, top dose 4 µM)” cannot be ordered by IC50: greater than 4 µM for the first, greater than 4 µM for the second.

“RC-K8 (B-cell lymphoma, suspension, top dose 4 µM)” and “RCC10RGB (kidney, adherent, top dose 4 µM)” cannot be ordered by IC50: greater than 4 µM for the first, greater than 4 µM for the second.

“RCC-AB (kidney, adherent, top dose 4 µM)” and “RCC-ER (kidney, adherent, top dose 4 µM)” are within 1.5-fold of each other in IC50: 1.67 µM for the first, 1.45 µM for the second.

Compared with “RCC-FG2 (kidney, adherent, top dose 4 µM)”, “RCC-JF (kidney, adherent, top dose 4 µM)” is 3.2-fold lower in IC50: 1.16 µM for the first, 0.364 µM for the second.

Going from “RCC-JW (kidney, adherent, top dose 4 µM)” to “RCC-MF (kidney, adherent, top dose 4 µM)”, the IC50 rises from 0.666 µM to 1.07 µM (1.6-fold).

First: RCH-ACV (B-cell leukaemia, suspension, top dose 4 µM)
Second: RCM-1 (large intestine, adherent, top dose 4 µM)
The IC50 of the first is lower: 0.0522 µM for the first, greater than 4 µM for the second.

Going from “REH (B-cell leukaemia, suspension, top dose 4 µM)” to “RERF-LC-KJ (lung adenocarcinoma, adherent, top dose 4 µM)”, the IC50 rises from 0.254 µM to 2.21 µM (8.7-fold).

Compared with “RERF-LC-MS (lung adenocarcinoma, adherent, top dose 4 µM)”, “RERF-LC-Sq1 (lung squamous cell carcinoma, adherent, top dose 4 µM)” is 2.9-fold lower in IC50: 3.3 µM for the first, 1.13 µM for the second.

First: RF-48 (stomach, adherent, top dose 4 µM)
Second: RH-1 (rhabdomyosarcoma, adherent, top dose 4 µM)
The IC50 of the first is lower: 2.48 µM for the first, greater than 4 µM for the second.

Going from “RH-18 (rhabdomyosarcoma, adherent, top dose 4 µM)” to RKN (ovary, adherent, top dose 4 µM), the IC50 falls from greater than 4 µM to 0.946 µM.

First: RL (B-cell lymphoma, suspension, top dose 4 µM)
Second: RO82-W-1 (thyroid, adherent, top dose 4 µM)
The IC50 of the first is higher: greater than 4 µM for the first, 2.66 µM for the second.

Compared with “ROS-50 (B-cell leukaemia, suspension, top dose 4 µM)”, “RPMI-2650 (head and neck, adherent, top dose 4 µM)” is lower in IC50: greater than 4 µM for the first, 2.46 µM for the second.

First: RPMI-6666 (Hodgkin lymphoma, suspension, top dose 4 µM)
Second: RPMI-7951 (melanoma, adherent, top dose 4 µM)
The IC50 of the first is 2-fold lower: 0.926 µM for the first, 1.86 µM for the second.

First: RPMI-8402 (T-cell lymphoblastic leukaemia, suspension, top dose 4 µM)
Second: RPMI-8866 (chronic myeloid leukaemia, suspension, top dose 4 µM)
The IC50 of the first is 2.1-fold higher: 0.378 µM for the first, 0.178 µM for the second.

First: RS4-11 (leukaemia, suspension, top dose 4 µM)
Second: RT4 (bladder, adherent, top dose 4 µM)
The IC50 of the first is lower: 0.107 µM for the first, greater than 4 µM for the second.

“RVH-421 (melanoma, adherent, top dose 4 µM)” gave an IC50 greater than 4 µM.
